Assay [1] deals with T1, PAQR3 with deletion of N-terminal 1-70 amino acids (UniProt Q6TCH7).
T1 sequence: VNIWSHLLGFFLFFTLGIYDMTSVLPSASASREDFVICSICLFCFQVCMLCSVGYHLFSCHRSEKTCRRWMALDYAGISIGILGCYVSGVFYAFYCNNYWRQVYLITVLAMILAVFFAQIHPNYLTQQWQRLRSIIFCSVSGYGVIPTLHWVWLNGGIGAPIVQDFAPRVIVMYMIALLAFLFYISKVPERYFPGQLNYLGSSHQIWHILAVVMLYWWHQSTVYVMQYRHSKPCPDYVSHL
The assay can be described thus: co-IP; PAQR3 construct expressed in HEK293T cells; endogenous Sec13 and Sec31A; cell lysate 24 hr after transfection used in IP and IB.

The next assay has as its target T2, Myc-tagged PAQR3 (UniProt Q6TCH7).
T2 sequence: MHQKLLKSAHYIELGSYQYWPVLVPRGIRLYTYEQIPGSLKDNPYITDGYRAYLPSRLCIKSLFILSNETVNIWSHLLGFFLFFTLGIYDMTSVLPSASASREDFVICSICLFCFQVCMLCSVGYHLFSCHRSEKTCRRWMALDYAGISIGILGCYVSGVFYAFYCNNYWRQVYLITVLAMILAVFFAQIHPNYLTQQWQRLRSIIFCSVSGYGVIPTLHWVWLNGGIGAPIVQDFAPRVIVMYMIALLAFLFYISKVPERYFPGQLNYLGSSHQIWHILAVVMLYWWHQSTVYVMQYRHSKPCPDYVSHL
The description is as above.

The values that follow come from publication PMC6249397.

No constants are given. Whether binding was seen depends on the method and setting. Binding seen in cells or lysates may run through a third protein. Some results given as binding are weak or reduced against the parent protein; the word gives no strength. For some assays here: Where a sequence is shown, tags or fusion partners need not be part of it.

B1: endogenous Sec31A (protein, UniProt O94979 1-1220)
chain: MKLKEVDRTAMQAWSPAQNHPIYLATGTSAQQLDATFSTNASLEIFELDLSDPSLDMKSCATFSSSHRYHKLIWGPYKMDSKGDVSGVLIAGGENGNIILYDPSKIIAGDKEVVIAQNDKHTGPVRALDVNIFQTNLVASGANESEIYIWDLNNFATPMTPGAKTQPPEDISCIAWNRQVQHILASASPSGRATVWDLRKNEPIIKVSDHSNRMHCSGLAWHPDVATQMVLASEDDRLPVIQMWDLRFASSPLRVLENHARGILAIAWSMADPELLLSCGKDAKILCSNPNTGEVLYELPTNTQWCFDIQWCPRNPAVLSAASFDGRISVYSIMGGSTDGLRQKQVDKLSSSFGNLDPFGTGQPLPPLQIPQQTAQHSIVLPLKKPPKWIRRPVGASFSFGGKLVTFENVRMPSHQGAEQQQQQHHVFISQVVTEKEFLSRSDQLQQAVQSQGFINYCQKKIDASQTEFEKNVWSFLKVNFEDDSRGKYLELLGYRKEDLGKKIALALNKVDGANVALKDSDQVAQSDGEESPAAEEQLLGEHIKEEKEESEFLPSSGGTFNISVSGDIDGLITQALLTGNFESAVDLCLHDNRMADAIILAIAGGQELLARTQKKYFAKSQSKITRLITAVVMKNWKEIVESCDLKNWREALAAVLTYAKPDEFSALCDLLGTRLENEGDSLLQTQACLCYICAGNVEKLVACWTKAQDGSHPLSLQDLIEKVVILRKAVQLTQAMDTSTVGVLLAAKMSQYANLLAAQGSIAAALAFLPDNTNQPNIMQLRDRLCRAQGEPVAGHESPKIPYEKQQLPKGRPGPVAGHHQMPRVQTQQYYPHGENPPPPGFIMHGNVNPNAAGQLPTSPGHMHTQVPPYPQPQPYQPAQPYPFGTGGSAMYRPQQPVAPPTSNAYPNTPYISSASSYTGQSQLYAAQHQASSPTSSPATSFPPPPSSGASFQHGGPGAPPSSSAYALPPGTTGTLPAASELPASQRTGPQNGWNDPPALNRVPKKKKMPENFMPPVPITSPIMNPLGDPQSQMLQQQPSAPVPLSSQSSFPQPHLPGGQPFHGVQQPLGQTGMPPSFSKPNIEGAPGAPIGNTFQHVQSLPTKKITKKPIPDEHLILKTTFEDLIQRCLSSATDPQTKRKLDDASKRLEFLYDKLREQTLSPTITSGLHNIARSIETRNYSEGLTMHTHIVSTSNFSETSAFMPVLKVVLTQANKLGV
Take B1: the results for the binding result (in assay [1]; with Myc-tagged PAQR3) were “no binding” and “binds”, respectively.
